Results published in the supplement of paper PMC3334620.
Over roughly 33,000 sequences, “E-score (-0.5 to 0.5)” has its median near -0.016; the highest 2% begin near 0.32. The list shows a part of the results.

target: T1, Stp1 (UniProt B3LFK1); test: PBM E-score (8-mer binding enrichment) (E-score (-0.5 to 0.5)); higher = stronger / more preferred TF binding; most listed sequences are background and not binding sites; conditions: protein concentration: 200 nM; construct: GST-full length
T1 sequence: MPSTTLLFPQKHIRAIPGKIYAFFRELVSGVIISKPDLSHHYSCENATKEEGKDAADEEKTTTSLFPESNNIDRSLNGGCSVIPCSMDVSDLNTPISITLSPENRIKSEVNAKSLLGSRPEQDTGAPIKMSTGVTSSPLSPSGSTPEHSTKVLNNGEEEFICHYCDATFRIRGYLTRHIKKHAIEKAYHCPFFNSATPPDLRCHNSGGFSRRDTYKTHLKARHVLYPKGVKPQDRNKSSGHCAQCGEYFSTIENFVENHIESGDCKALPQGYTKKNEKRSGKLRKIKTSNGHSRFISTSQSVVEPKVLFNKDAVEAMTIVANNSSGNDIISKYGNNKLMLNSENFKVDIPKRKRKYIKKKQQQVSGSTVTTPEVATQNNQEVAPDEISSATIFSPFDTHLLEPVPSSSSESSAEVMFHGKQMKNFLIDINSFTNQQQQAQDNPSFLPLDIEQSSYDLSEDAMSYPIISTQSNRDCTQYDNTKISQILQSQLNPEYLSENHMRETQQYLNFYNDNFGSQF
Summary of the method: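 For each ungapped eight-base word taken together with its reverse complement, the Universal PBM Analysis Suite assigned an E-score. Binding data came from GST-tagged yeast transcription factors, applied at about 100-200 nM, on universal all-10-mer Agilent arrays made double-stranded by primer extension. Fluorescent anti-GST marked bound protein, and scans were normalised with masliner.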

Row | Sequence | PBM E-score
1 | CGGCATGC | 0.338
2 | AGAATGCA | -0.0184
3 | GTTAAGCA | -0.0523
4 | CCGGAATA | -0.12
5 | ATCAAATG | 0.0465
6 | GCAGACAC | 0.0232
7 | GTTAGCTA | 0.00972
8 | TGCACCCA | -0.208
9 | ACCATTAC | 0.0161
10 | CCAACCCC | -0.207
11 | CAACGTGG | 0.0582
12 | ATAGGGTC | -0.256
13 | AGGTAGAC | -0.183
14 | CGAAAGCA | -0.0294
15 | CATTGTCA | -0.0284
16 | GACTTCTC | -0.0937
17 | GATGTGGC | 0.105
18 | CTCGCGTA | -0.122
19 | CCAGGACC | -0.325
20 | GTGTACCA | -0.152
21 | ATTCACTA | 0.0352
22 | TATATCGA | 0.253
23 | GAGCGGAC | -0.131
24 | AACCTCCG | -0.339
25 | TACGCAGA | 0.0566

Row | Sequence | PBM E-score
26 | TGAAACAA | 0.133
27 | ATCTGGGG | -0.374
28 | CGTAAGAC | -0.0428
29 | GCGTCCCA | -0.16
30 | AAAGCCCT | -0.19
31 | TAGTATAA | 0.119
32 | CTAACGAC | -0.0775
33 | ACTGTGCC | 0.262
34 | AAGATCCG | -0.1
35 | GGTTTAGA | -0.156
36 | ATCCATGC | 0.0293
37 | CCAACGTA | -0.0611
38 | CCCTGAGA | -0.311
39 | CGAGGCCC | -0.0701
40 | GGACAACC | -0.11
41 | ACGTGTAT | 0.014
42 | AACACTAG | -0.0344
43 | ATACGGCA | 0.483
44 | ACATCTGA | -0.0759
45 | ATATCAAT | 0.178
46 | CGAAGTAA | 0.0461
47 | ATGGCCCC | -0.214
48 | GCGATACA | 0.0444
49 | AATTGCAT | 0.0958
50 | ATCCTCTG | -0.194

Row | Sequence | PBM E-score
51 | CTAGATAA | 0.0636
52 | CCGCGCTA | 0.289
53 | GTTCCATA | -0.164
54 | ACAAATGT | 0.0876
55 | GAGGAAGA | -0.12
56 | CAGCAAGG | 0.0199
57 | AGGGATGA | -0.12
58 | CAGAATTA | -0.117
59 | CAGTGGCA | 0.178
60 | ATGAGTTA | -0.0188
61 | AGTAGGAT | -0.0597
62 | AAATTTCC | -0.0272
63 | TTCCAAAA | 0.113
64 | CGCGGGTA | 0.0364
65 | AACGACTG | -0.143
66 | ATACTAGA | 0.136
67 | CACCTACG | -0.152
68 | AGCTGCAT | 0.00937
69 | CTTAGGGC | -0.0209
70 | CAGTACGA | 0.0821
71 | CTAGATTA | 0.122
72 | ACCGAAAC | -0.0536
73 | TCCAACGA | -0.00725
74 | ATGGTAGG | -0.116
75 | ATTGTGCC | 0.322

Row | Sequence | PBM E-score
76 | CAAAGTCG | -0.0558
77 | AGTGGTAG | -0.131
78 | GCGCGAAC | 0.172
79 | CGTTTTAC | 0.15
80 | ACCCTTTG | -0.109
81 | AGTAGGGC | 0.0649
82 | CCACCAGG | -0.198
83 | TAGTTCGA | 0.125
84 | AACGGGAT | 0.00558
85 | CTACGCCC | -0.102
86 | CTATAAAC | 0.142
87 | CGTGTTAC | 0.0646
88 | AGGGCATA | 0.128
89 | TACAGGCA | 0.102
90 | GTGTACAC | -0.0403
91 | GTATAATA | 0.286
92 | ATTGATTA | 0.338
93 | ATTAAATC | 0.128
94 | ACGTCGCC | -0.0772
95 | GTCCTAAA | 0.204
96 | ACCGGGGG | -0.392
97 | GTGAGTAA | 0.15
98 | AGTCATGA | -0.099
99 | CTCCGTAC | 0.184
100 | CGATAAAG | 0.0783

Row | Sequence | PBM E-score
101 | ACACGCTA | -0.118
102 | GCGACTTA | -0.0993
103 | AAGTGCAC | -0.034
104 | CCTGTCTC | -0.247
105 | AATAATAC | 0.0846
106 | AGCCAGAG | -0.302
107 | GACGTAGA | -0.253
108 | CAATGTAG | -0.324
109 | AGGTCACC | -0.222
110 | ACCCAGCT | -0.283
111 | AGATCATG | -0.00529
112 | ACGCCGGG | -0.0857
113 | GACATCCA | -0.209
114 | GAGTTGGA | -0.157
115 | GAGGCAGC | 0.0343
116 | GCCAATCA | -0.224
117 | CGGTGGTA | -0.081
118 | GTAGGTCA | -0.249
119 | ACACTCGC | 0.00829
120 | AGGACTGA | -0.149
121 | AGTCATTA | -0.172
122 | CGCTAAGC | 0.186
123 | ACAGAGAC | -0.0839
124 | CCCGAGAC | -0.212
125 | AAACCACG | -0.089

Row | Sequence | PBM E-score
126 | GGTTACAC | -0.101
127 | GAAATTGC | -0.0367
128 | ACCTGCAC | -0.155
129 | GGGGGAAC | -0.321
130 | CATATCGC | 0.199
131 | ATCAGATG | 0.0874
132 | GAACCCAA | -0.0962
133 | CCTCCCTC | -0.168
134 | GCAACTCC | 0.0368
135 | ATTTGACG | 0.13
136 | GTATGGGA | -0.155
137 | CGTGATAC | -0.05
138 | AATGCGGC | 0.435
139 | GGATCTCA | -0.137
140 | AAGTCGTG | -0.119
141 | AGCAGACC | -0.0565
142 | CCTCTGTA | -0.0499
143 | GACTAACA | -0.00472
144 | ACCGGTCC | -0.369
145 | ACAAAACG | 0.255
146 | AATAGTGT | 0.104
147 | CGGTCACA | -0.236
148 | GAGGTAGC | -0.299
149 | CACGGCCA | 0.34
150 | CCTATGCC | 0.0677

Row | Sequence | PBM E-score
151 | TGCGGTAA | 0.285
152 | CCAGCAAG | -0.221
153 | GGAGGGGA | -0.22
154 | GCCAACAA | -0.18
155 | CAAGATCC | -0.0198
156 | GAGAACTA | 0.0272
157 | CACCCAAG | -0.185
158 | TCATAGCA | -0.0832
159 | CTTGAATC | 0.0123
160 | CTGGAGGA | -0.101
161 | CGGGGCAG | -0.0721
162 | CCGACGAG | -0.0825
163 | CAGCATCC | -0.252
164 | CCGAGGGC | 0.00695
165 | GATCCTGA | 0.0651
166 | AACCTAGG | -0.124
167 | AAACGACG | 0.153
168 | GCCGGGAA | -0.208
169 | AGCCTTAC | -0.022
170 | CGTGCTGA | 0.0468
171 | TACCCCCA | -0.28
172 | GGTTAAAA | -0.0872
